{"source": "paper PMC6919601", "about": "“Identification of Plasmodium dipeptidyl aminopeptidase allosteric inhibitors by high throughput screening” (PLoS ONE, 2019)", "note": "Several values for one entry are separate records, joined by “and”; a condition that tells them apart may be missing. Identical values can stand only once. The whole screen tested about 110,000 compounds, of which about 230 (0.21%) showed an effect of 50% or more. Some of the results follow.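 Also: 30 min substrate incubation versus DMSO and 10 µM JCP410 controls.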", "data": [{"target": "DPAP1 (Plasmodium falciparum, UniProt Q8IIJ9)", "sequence (Q8IIJ9 whole entry, looked up)": "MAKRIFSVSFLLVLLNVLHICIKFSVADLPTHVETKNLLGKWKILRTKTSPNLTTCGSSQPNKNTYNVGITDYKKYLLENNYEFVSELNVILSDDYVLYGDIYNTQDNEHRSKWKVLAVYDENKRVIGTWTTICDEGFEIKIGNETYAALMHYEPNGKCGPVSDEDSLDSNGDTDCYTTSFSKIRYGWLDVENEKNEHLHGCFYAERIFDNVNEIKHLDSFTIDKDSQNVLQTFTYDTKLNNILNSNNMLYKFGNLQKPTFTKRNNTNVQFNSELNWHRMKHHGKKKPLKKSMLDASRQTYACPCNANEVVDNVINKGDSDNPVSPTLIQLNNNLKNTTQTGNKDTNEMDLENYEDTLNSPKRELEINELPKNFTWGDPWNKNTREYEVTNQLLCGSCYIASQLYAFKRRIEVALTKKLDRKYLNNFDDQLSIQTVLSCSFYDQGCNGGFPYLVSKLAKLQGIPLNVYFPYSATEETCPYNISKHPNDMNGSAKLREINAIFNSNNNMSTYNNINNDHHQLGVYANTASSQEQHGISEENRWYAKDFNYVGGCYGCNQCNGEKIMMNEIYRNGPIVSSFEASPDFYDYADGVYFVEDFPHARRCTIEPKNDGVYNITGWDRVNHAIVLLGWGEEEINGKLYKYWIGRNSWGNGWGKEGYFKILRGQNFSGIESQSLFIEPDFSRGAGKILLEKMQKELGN", "experiment": "primary screen, percent inhibition; read by cleavage of a fluorogenic dipeptide substrate; higher = more effect of the substance", "design": "species or system P. falciparum D10 trophozoite lysates; single well", "values": [{"smiles": "Cc1ccc(OC(C)C(=O)Nc2cc(C)ccn2)cc1", "note": "(centres unmarked)", "% Inhibition @ 10 uM": "2.03%"}, {"smiles": "COC(=O)c1ccc(-c2ccco2)n1CC(=O)N1CCCC1", "% Inhibition @ 10 uM": "1.22%"}, {"smiles": "CCC(C)(O)C#CCN1CCN(C)CC1", "note": "(centres unmarked)", "% Inhibition @ 10 uM": "-7.02%"}, {"smiles": "CC(=O)c1cc(-c2ccc(F)cc2)n(CC(=O)NCCc2ccc(C)cc2)c1C", "% Inhibition @ 10 uM": "3.07%"}, {"smiles": "Cc1cc(C)nc(SCC(=O)NCC(C)NC(=O)CSc2nc(C)cc(C)n2)n1", "note": "(centres unmarked)", "% Inhibition @ 10 uM": "-4.24%"}, {"smiles": "COc1ccc(OC)c(/C=C2/SC(=O)N(CC(=O)N3CCOCC3)C2=O)c1", "% Inhibition @ 10 uM": "2.33%"}, {"smiles": "CCOC(=O)c1conc1-c1cc(OC)c(OC)c(OC)c1", "% Inhibition @ 10 uM": "-3.63%"}, {"smiles": "O=C(c1cccc(F)c1)N1CCN(Cc2ccccc2F)CC1", "% Inhibition @ 10 uM": "-4.01%"}, {"smiles": "CCOC(=O)c1c(NC(=O)c2nc3n(n2)C(C(F)F)CC(C)N3)sc2c1CCC(C)C2", "note": "(centres unmarked)", "% Inhibition @ 10 uM": "4.93%"}, {"smiles": "Cc1ccc(OCC(=O)Nc2cccnc2Cl)c(C)c1", "% Inhibition @ 10 uM": "2.82%"}, {"smiles": "Cc1noc(C)c1CSc1nc2nncc-2c(O)n1-c1ccccc1", "% Inhibition @ 10 uM": "-3.85%"}, {"smiles": "COc1ccc(N(C(C)C(=O)Nc2cccnc2)S(C)(=O)=O)cc1", "note": "(centres unmarked)", "% Inhibition @ 10 uM": "-7.56% and -0.661%"}, {"smiles": "CN1CCN(C2CCC(C(C)(C)C)CC2)CC1", "note": "(centres unmarked)", "% Inhibition @ 10 uM": "-1.21%"}, {"smiles": "NC(=O)c1ccccc1NC(=O)c1ccc(-c2ccccc2)cc1", "% Inhibition @ 10 uM": "1.13%"}, {"smiles": "CC/N=C1/SC(CC(=O)Nc2ccc(C)cc2Br)C(=O)N1CC", "note": "(centres unmarked)", "% Inhibition @ 10 uM": "-2.34%"}, {"smiles": "CCn1c2ccccc2c2cc(CNCCc3cccc(F)c3)ccc21", "% Inhibition @ 10 uM": "-9.04%"}, {"smiles": "CN(C(=O)CSc1nc(O)c2c(n1)CCC2)C1CCCCC1", "% Inhibition @ 10 uM": "0.44%"}, {"smiles": "CCCC(=O)Nc1ccc(C(=O)Nc2ccc(Br)cc2C)cc1", "% Inhibition @ 10 uM": "1.17%"}, {"smiles": "CCOc1ccccc1CN1C(=O)c2ccccc2C1C(=O)NCC1CCCO1", "note": "(centres unmarked)", "% Inhibition @ 10 uM": "-5.2%"}, {"smiles": "c1ccc(Cc2nc3c4cnn(Cc5ccccc5)c4ncn3n2)cc1", "% Inhibition @ 10 uM": "-4.64%"}, {"smiles": "COCCCNC(=O)c1ccc2c(c1)ncn2-c1cc(OC)ccc1OC", "% Inhibition @ 10 uM": "2.8%"}, {"smiles": "COc1ccc(-c2cc(C3CC3)nc(SC)c2C#N)cc1", "% Inhibition @ 10 uM": "-3.77%"}, {"smiles": "COc1cccc(Cn2c(-c3nonc3N)nc3ccccc32)c1", "% Inhibition @ 10 uM": "-5.38%"}, {"smiles": "N#CCNC(=O)[C@H](CSCc1ccccn1)NC(=O)c1ccccc1", "% Inhibition @ 10 uM": "4.33%"}, {"smiles": "CC(C(=O)NC1CCN(Cc2ccccc2)CC1)n1sc2ccccc2c1=O", "note": "(centres unmarked)", "% Inhibition @ 10 uM": "1%"}, {"smiles": "COc1ccc(NC(=O)c2ccc(C)c(C)c2)cc1", "% Inhibition @ 10 uM": "-6.66%"}, {"smiles": "COc1ccc(N2CCN(C(=O)CN3C(=O)C4CCCCC4C3=O)CC2)cc1", "note": "(centres unmarked)", "% Inhibition @ 10 uM": "-1.17%"}, {"smiles": "COc1cc(C(=O)Nc2ccc(S(=O)(=O)N3CCCCCC3)cc2)cc(OC)c1OC", "% Inhibition @ 10 uM": "0.727%"}, {"smiles": "N#CC1=C(N)N(c2ccccc2)C2=C(C(=O)CCC2)C1c1ccccc1", "note": "(centres unmarked)", "% Inhibition @ 10 uM": "2.38%"}]}]}
